From paper PMC12136788
Some of the results follow.

T1: UNK ZnF1-3 (human, UniProt Q9C0B0 31-174)
T1 sequence: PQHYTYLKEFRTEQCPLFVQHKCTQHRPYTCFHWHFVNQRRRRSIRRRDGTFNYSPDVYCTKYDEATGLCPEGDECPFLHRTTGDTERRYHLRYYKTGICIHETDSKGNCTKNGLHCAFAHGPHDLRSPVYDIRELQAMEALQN

B1: chr7:140404665:140404666:+_ENSG00000090266_ENST00000247866|hu_hu|hu_hu_hu_mus_False|18_28 (ssRNA)
RNA: GGGAGUUCUACAGUCCGACGAUCUGCUCCUACUCGUCCAGAGAGUUUACAGUGUCAGUCCUCGUCAUCAGGAGGGAUUCCCAGUUCUUCAUCUGUCCACUGUGAAGGAUCAGGAUACGGAAAGUGACCCAGCACAGCAUCCGACAACAGAGGAUUGAGCAUCA
B2: chr1:85787162:85787163:-_ENSG00000153904_ENST00000284031|hu_hu|FALSE|FALSE (ssRNA)
RNA: GGGAGUUCUACAGUCCGACGAUCGCCGGCAACCGGGGGGGACUCUGCAGCUCAGGAGUCUACUUUCUUGUUAAUUAAAACUGAGCAGCAGGUGAGCAGCCCAUCCACCUUUUCCAGUUCAGACAUGCUCACGGGGAUCAGCAUCAACAGAGGAUUGAGCAUCA
B3: chr7:135850644:135850645:-_ENSMUSG00000048170_ENSMUST00000057557|mus_hu|motif|central (ssRNA)
RNA: GGGAGUUCUACAGUCCGACGAUCAUACAAGUGUUCUGUGAAGGUACUAUUCCGUGGGCAACCACUCAAGUUAACUGUAAAUUUUCCGGGUGGAAGGACAUCUCUUCUUGUAUAUACUGUGGAGAUGAGAUGUAAUAUAAGGUACAACAGAGGAUUGAGCAUCA
B4: chr7:90019630:90019631:+_ENSMUSG00000057706_ENSMUST00000082237|mus_mus|motif|central (ssRNA)
RNA: GGGAGUUCUACAGUCCGACGAUCUAUAUCACUGAAUAGAAAAUAUGCUGGGUGAAGCAGAUCUAGAAGAUUUGUCUGAACCGGUAAAAUCUCCAUCCCAACAGAAUACUGCUCAAAACGUUAUACAUUUUAUGGUUUGUAAUCCAACAGAGGAUUGAGCAUCA
B5: chr3:75345182:75345183:-_ENSMUSG00000027835_ENSMUST00000161137|mus_hu|motif|central (ssRNA)
RNA: GGGAGUUCUACAGUCCGACGAUCAUGUGGUCUCAGCUUCAUUCUUCAUCUCUUCCAUUGUCAUCCUCAUUCAAAAGCCAACGGCAGUUGAAAAAGCAGUGCUAAAAUGCAGAGGAAUCUUCAUUCACUGCAAUAUUUCUUCUCCAACAGAGGAUUGAGCAUCA
B6: chr8:74585381:74585382:-_ENSG00000040341_ENST00000355780|hu_mus|motif|central (ssRNA)
RNA: GGGAGUUCUACAGUCCGACGAUCGGGCAUUGGGCAAUGAUACCUCUGAUUGUACAUGCCCCGGAAGUUGUAGUUAGCUCGGUAAUUUGGGAAUGGCUUUGGAUCUAGUGGCCUGUAGAUGGCAGGCUCUCCCCUUUUCAUAGCCAACAGAGGAUUGAGCAUCA
B7: chr16:71807222:71807223:-_ENSG00000166747_ENST00000299980|perfect_dup|motif|central (ssRNA)
RNA: GGGAGUUCUACAGUCCGACGAUCUCCCGCAAGAUCUCUGCACAUCUCCGAGGAGCCCAUGCAGCCGAGGGUACAAAGUGCGGGCCCCUGCACAAACUGCGUGCUAUGAUUAAGAUCAUUCUUGAUACAGUUGGUCAUGAGAAGCAACAGAGGAUUGAGCAUCA
B8: chr7:135612270:135612271:-_ENSG00000105887_ENST00000393085|hu_mus|FALSE|FALSE (ssRNA)
RNA: GGGAGUUCUACAGUCCGACGAUCGUUUUUUUCUGAGAUGUUAAAUAGUACUUCAGUGGAAAACAAAACUUAACCUUUUAUUAAUGCGUGUUGUACCAAAAGCAGACAUUUUAGCUUCAUUUAUUCAAAAAUAUUAACAUUAAGCAACAGAGGAUUGAGCAUCA
B9: chr5:93601047:93601048:+_ENSMUSG00000058013_ENSMUST00000074733|mus_hu|motif|central (ssRNA)
RNA: GGGAGUUCUACAGUCCGACGAUCCAUGAUCCAACCUUUAAGACCUCUAUCUGUGAGAGGAUCAAGGAUGCACCAGUAAAUGUGAACGGAUCAUAGUUUUCUCAUACCAGUCUACUCCAACUUGGCCAGGAUUGAAGGCAGGCACAACAGAGGAUUGAGCAUCA
B10: chr4:175180916:175180917:-_ENSG00000164117_ENST00000503293|hu_mus|motif|central (ssRNA)
RNA: GGGAGUUCUACAGUCCGACGAUCAUUAAAGGUGAGGCUUCCCUCAUCUAGCUGCAUAUACAAUUUUCUAAAAGAAAAUCCGGAAGGUGGGUUCUUAUUGUAUAUAGAGCAGUGACCCCAUGUAGAUUUACACAACCCUUGCCACAACAGAGGAUUGAGCAUCA
B11: chr4:174295105:174295106:+_ENSG00000164105_ENST00000296504|hu_hu|FALSE|FALSE (ssRNA)
RNA: GGGAGUUCUACAGUCCGACGAUCUUGUGCUUUAUUAAGUCCUGGUCUGGUUGGUAGCUUGAAGUGUCUUUUGUAUCUCCUAAGUGUAUUUACUUGUAAUUGGUAUAAAUCAACCUCUGGGGUAUCAAUAUCUUGAACAGGUGACAACAGAGGAUUGAGCAUCA
B12: chr14:37946427:37946428:-_ENSMUSG00000041028_ENSMUST00000165649|mus_hu|FALSE|FALSE (ssRNA)
RNA: GGGAGUUCUACAGUCCGACGAUCCGAUGGUUCCAAUGCUGCCUCUUUGAGUUCUUGGCCAGUUCUCCCACGCCGGAUCCCAAUUCUUGUUUUGGUGGCAUAUUCCCUGCUAGGUGUUAACAGCCAUUGAUUCUUCGUGAUGGACAACAGAGGAUUGAGCAUCA
B13: chr5:3590733:3590734:-_ENSMUSG00000040302_ENSMUST00000042753|mus_hu|FALSE|FALSE (ssRNA)
RNA: GGGAGUUCUACAGUCCGACGAUCUGAGUUCCCUGCAGAAGUGUUCAAAGCAGCUUUACAAAAUCCAGACAUCUCUGAGUGGAAGUCUUGUCUAAAAUCCUCUGUGUCUUUAUGCUCUGUAACCAAUUUCUUCUUUGUCACGUACAACAGAGGAUUGAGCAUCA
B14: chrX:70776531:70776532:+_ENSG00000147162_ENST00000373719|perfect_dup|motif|central (ssRNA)
RNA: GGGAGUUCUACAGUCCGACGAUCCUGUUGCAGUACACUUGCUAAAUUGGAAUGUGCAGCAGCAAACUCUGGGAAGACUUCGGAUGCUUUGCGAUACAGGCGAACUGCCUCUUCAAUGUUGCCCUGUUCCCGUUUGAUGUUGGCCAACAGAGGAUUGAGCAUCA
B15: chr3:125295114:125295115:-_ENSG00000144909_ENST00000296220|hu_mus|motif|central (ssRNA)
RNA: GGGAGUUCUACAGUCCGACGAUCAACAUUAAAAAAAGACAUGGCAUUCUGACUUGGUCUCCGCUGGGAUAUGGGAGAAUUACCACGGGAUGCCAGCGAGAAGCUCCGGGACUUCAGGGGAGGGUUAUUCUUUCCAAUAGCUUCCAACAGAGGAUUGAGCAUCA
B16: chr12:21621489:21621490:+_ENSG00000121350_ENST00000240651|hu_mus|FALSE|FALSE (ssRNA)
RNA: GGGAGUUCUACAGUCCGACGAUCGACUUUGACAUACUCUUGUCCUCUGGUGCACCUCAGCAUCAACUCAUGGUCUGCGCCCAGGCCUUGUGCGUUGUAUUUUCCCAGCAAUACAACCUUAUAGUUAAAAAACUUUGUGACAUGCAACAGAGGAUUGAGCAUCA
B17: chr4:115894766:115894767:+_ENSMUSG00000028698_ENSMUST00000030464|mus_hu|mus_mus_mus_hu_True|68_68 (ssRNA)
RNA: GGGAGUUCUACAGUCCGACGAUCUUCCACACGGAAAUGUACUUCGGGUUUUCCAACGGCCAGUACCGUCCAGCCAAAACUACCCGAACAGGGUCCUCCCCCUCUCUCCUACAGAACACAACAAAAUGCCCCCGAACUUUCAAGCAACAGAGGAUUGAGCAUCA
B18: 56345045_56345841_383_CDS_ENSG00000134852_ENST00000309964|human|control|control (ssRNA)
RNA: GGGAGUUCUACAGUCCGACGAUCAUUACCAGGAAGCAUGGAUCCCAGUUCUUUAAUGAGAACAUUAAAUUGAUCUCUACGUUUCUUUUCAGAUUUGUUUCUAGAUACUCUUUUCGCUUUGUCCUUGUCAUCUUCUUCCACCAACAACAGAGGAUUGAGCAUCA
B19: chr17:60770872:60770873:+_ENSG00000011028_ENST00000303375|hu_hu|hu_hu_hu_mus_True|38_98 (ssRNA)
RNA: GGGAGUUCUACAGUCCGACGAUCUCUUUAAAAAAAAUUCCUUUUUUACAAACAAUAAUAGCACAUUUCGAGAAUCAAGAACUACAAUAGAGGGUCCAUGUCUUCGAUUUGUUCACAUCGUCCUGCACUGGGACACGGGGACUGCAACAGAGGAUUGAGCAUCA
B20: chr6:76550321:76550322:+_ENSG00000196586_ENST00000369975|hu_hu|motif|central (ssRNA)
RNA: GGGAGUUCUACAGUCCGACGAUCAACAACUGAGCUCUUUUCAUUAAAAUGUAUUUCUACAAAUUUCCCAAAUCGACUGCGGUUAUUGUUGCGAACAGUCUUCGCAUUUCCAAAGGCUUCUAGGAGUGGGUUAGCUUCAACAAUCAACAGAGGAUUGAGCAUCA
B21: chr2:179515052:179515053:+_ENSMUSG00000000305_ENSMUST00000000314|mus_hu|mus_mus_mus_hu_False|88_98 (ssRNA)
RNA: GGGAGUUCUACAGUCCGACGAUCGCUGUCCCAUGCAGUGACGGUAAAGGCCACCUGCUCGGAGGGGACCUGCAGCUCCCGGGUGGCGAAGACUGUCCCAUCUGCCCCAACUUUGAAGUCCAUGCUGUUGGUCUCAUAUUGUGUCAACAGAGGAUUGAGCAUCA
B22: chr3:176740097:176740098:-_ENSG00000177565_ENST00000430069|hu_mus|hu_hu_hu_mus_True|1_1 (ssRNA)
RNA: GGGAGUUCUACAGUCCGACGAUCUGUUUUGUAUACCACAAAAGGAGGCACUUUCAGUAUCUGCAAAAGGUGUUUAGUCCUAAAACAUACUCACCUAGAGGAUAACUCAGGAAAACAAUCUGUUACACUCUAAGACCUUAGGAACAACAGAGGAUUGAGCAUCA

Biological target: T1, UNK ZnF1-3
Experiment: nsRBNS (natural sequence RNA bind-n-seq); RBNS binding buffer (assumed for nsRBNS): 25 mM Tris pH 7.5, 150 mM KCl, 3 mM MgCl2, 0.01% Triton X-100, 500 ug/ml BSA, 20 U/ml SUPERase-In, 4 C; UNK is unkempt and MSI1 is Musashi-1; names of the RNAs are library labels; protein concentration not given here; high values mean tight binding

Binder	binding signal [enrichment R]
B1	1.27
B2	1.66
B3	1.4
B4	0.794
B5	1.17
B6	0.896
B7	1.33
B8	1.04
B9	1.34
B10	1.21
B11	0.907
B12	0.494
B13	0.902
B14	0.919
B15	2.08
B16	0.981
B17	1.06
B18	0.531
B19	0.867
B20	0.856
B21	0.874
B22	0.817
